Laboratory results: PubChem BioAssay AID651820 (National Center for Advancing Translational Sciences (NCATS), 2012)
The whole screen tested about 340,000 compounds, of which about 12,000 (3.5%) were called active. The inconclusive results got no clear call from the source; some entries with a clear call stand among them for comparison. The call rests on the fitted dose curve; in most records, active means well fitted inhibition curve with a large enough effect; inconclusive means small, poorly fitted or top-dose-only effect, or another doubt; inactive means no such curve, though single readings can be large or run the other way. No potency is given beside an inconclusive call; the fits are too rough.

Experiment: qHTS Assay for Inhibitors of Hepatitis C Virus (HCV)
Settings: Huh7.5.1 HCVcc-Cre (HCVcc is cell-culture hepatitis C virus) infection, luciferase reporter, 44 h; series mostly up to 41.8 µM
In short: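 A cell-based infection assay in which seeded cells (1,000 per well) receive test compound after 4 h, are inoculated with HCVcc-Cre at approximately 0.5 moi, and are incubated 44 h before luminescence detection.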
Potency means the concentration at half of the fitted maximal effect; tags describe the fitted curve by direction and shape.

Row | SMILES | Potency
1 | Cc1ccc(Sc2ncccc2NC(=O)c2ccccc2Cl)cc1 | inconclusive [inhibitor, single point]
2 | O=S1(=O)c2ccc(Br)cc2N2CCC[C@@H]2CN1C1CC1 | inconclusive [inhibitor, single point]
3 | COc1cc(C2CC(=O)Oc3cc(OC)c(OC)c(OC)c32)cc(OC)c1OC (centres undefined) | inconclusive [inhibitor, single point]
4 | COc1cccc(-c2cc(C(F)(F)F)nc(-n3ccc([N+](=O)[O-])n3)n2)c1 | inconclusive [inhibitor, partial curve]
5 | Fc1ccccc1Nc1nc(NCc2ccco2)nc(N2CCOCC2)n1 | active: 35.5 µM
6 | CCOC(=O)c1c(CSc2ccccc2)oc2cc(Br)c(O)c(CN(C)C)c12 | inconclusive [inhibitor, partial curve, poor fit]
7 | COc1cc(OC)c(C(=O)NNC(=O)CN(C)S(=O)(=O)c2ccc(Cl)cc2)cc1OC | inconclusive [inhibitor, single point]
8 | Cc1ccc(-c2noc(C3CCCN(C(=O)c4ccccc4Br)C3)n2)cc1 (centres undefined) | active: 10 µM
9 | CCOC(=O)Cc1nnc(NC(=O)CSc2nnc3c4ccccc4n(C(C)C)c3n2)s1 | inconclusive [inhibitor, single point]
10 | CCc1ccccc1NC(=O)C1(S(=O)(=O)c2ccc(C)cc2)CC1 | inactive
11 | O=[N+]([O-])c1cccc(-c2ccc(/C=N/NC(=S)Nc3ccccc3)o2)c1 | inactive
12 | CCOC(=O)Cc1nn(C(C)C)c(=O)c2ccccc12 | inactive
13 | c1ccc2c(c1)nc(N1CCOCC1)c1ccccc12 | inconclusive [inhibitor, single point]
14 | COc1ccccc1N(O)C1CC(=O)N(c2ccc(Br)cc2)C1=O (centres undefined) | inactive
15 | O=C(CCN1CCC(c2ccccc2)C1)c1cccs1 (centres undefined) | inconclusive [inhibitor, single point]
16 | CCCCN1CC(=O)N2[C@H](c3ccc(OC)cc3)[C@@H]3C(=O)N(CC)C(=O)[C@@H]3[C@]2(C)C1=O | inactive
17 | CN(Cc1cnc2nc(N)nc(N)c2n1)c1ccc(C(=O)NC(CCC(=O)O)C(=O)O)cc1 (centres undefined) | inconclusive [inhibitor, full curve]
18 | CC(=O)c1ccc(N2CCN(C(=O)c3ccccc3SCC(=O)NCc3ccco3)CC2)c(F)c1 | active: 12.6 µM
19 | C[C@H]1CN([C@@H](C)CO)C(=O)c2cccc(NC(=O)Nc3ccc(C(F)(F)F)cc3)c2O[C@@H]1CN(C)S(=O)(=O)c1ccccc1 | inconclusive [inhibitor, single point]
